# Measurements published in PubChem BioAssay AID504332 (National Center for Advancing Translational Sciences (NCATS), 2011).
# The campaign covered roughly 350,000 compounds. About 31,000 (8.9%) were called active. Inconclusive results, whose numbers are uncertain, are shown with a selection of clear calls. Calls follow the shape of the dose curve; as a rule, active = well fitted inhibition curve with a large enough effect; inconclusive = small, poorly fitted or top-dose-only effect; inactive = no such curve, though single readings can be large or run the other way. Potencies beside an inconclusive call are fits to weak or partial responses and may not hold up.
# Biological target: Histone-lysine N-methyltransferase EHMT2 (Homo sapiens) (UniProt Q96KQ7)
# Chain of UniProt Q96KQ7 (Q96KQ7 whole entry, looked up): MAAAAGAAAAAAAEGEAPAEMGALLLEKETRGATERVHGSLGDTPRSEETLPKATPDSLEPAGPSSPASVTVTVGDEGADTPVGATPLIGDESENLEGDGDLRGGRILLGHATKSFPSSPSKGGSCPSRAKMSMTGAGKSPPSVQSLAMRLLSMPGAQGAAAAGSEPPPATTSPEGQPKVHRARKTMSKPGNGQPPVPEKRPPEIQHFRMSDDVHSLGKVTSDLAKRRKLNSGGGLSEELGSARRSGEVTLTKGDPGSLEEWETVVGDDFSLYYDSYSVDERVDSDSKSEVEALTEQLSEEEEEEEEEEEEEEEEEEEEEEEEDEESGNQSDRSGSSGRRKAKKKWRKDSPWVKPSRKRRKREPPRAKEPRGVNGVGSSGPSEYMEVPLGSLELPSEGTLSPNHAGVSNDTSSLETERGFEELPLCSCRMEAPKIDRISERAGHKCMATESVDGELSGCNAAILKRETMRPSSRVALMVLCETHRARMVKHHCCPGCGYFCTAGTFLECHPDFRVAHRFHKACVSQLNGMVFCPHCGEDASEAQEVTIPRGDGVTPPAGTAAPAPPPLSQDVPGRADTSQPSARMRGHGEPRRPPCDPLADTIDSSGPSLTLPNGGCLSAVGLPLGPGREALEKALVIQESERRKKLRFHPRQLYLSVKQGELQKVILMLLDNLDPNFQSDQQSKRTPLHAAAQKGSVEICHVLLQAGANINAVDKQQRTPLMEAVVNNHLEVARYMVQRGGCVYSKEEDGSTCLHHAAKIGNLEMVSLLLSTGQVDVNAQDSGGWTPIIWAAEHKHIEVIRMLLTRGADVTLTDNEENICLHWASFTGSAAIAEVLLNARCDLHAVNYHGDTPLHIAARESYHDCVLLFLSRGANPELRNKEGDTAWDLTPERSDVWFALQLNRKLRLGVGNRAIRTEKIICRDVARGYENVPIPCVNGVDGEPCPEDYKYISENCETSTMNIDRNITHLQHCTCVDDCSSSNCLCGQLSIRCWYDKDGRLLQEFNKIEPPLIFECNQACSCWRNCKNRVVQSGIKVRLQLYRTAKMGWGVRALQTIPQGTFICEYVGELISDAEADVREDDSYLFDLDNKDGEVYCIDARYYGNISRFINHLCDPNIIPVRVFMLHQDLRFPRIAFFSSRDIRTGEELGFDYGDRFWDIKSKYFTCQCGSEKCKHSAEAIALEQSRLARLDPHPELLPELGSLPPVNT
# Assay: qHTS Assay for Inhibitors of Histone Lysine Methyltransferase G9a; also: nearly all actives have a fitted effect of over 75% in size
# Conditions: G9a H3K9 monomethylation, AlphaScreen, 2 h; activity, negative = inhibition: at 59 µM (top of the series) unless noted
# In short: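 Using a bead-based AlphaScreen, monomethylated H3K9 product from 2 h room-temperature reactions (G9a 20 nM, peptide 500 nM, SAM 20 uM) was detected with 0.5 ug/mL rabbit anti-H3K9me1 antibody.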
# % is scaled to controls: 0 for no effect and ±100 for the full control effect; potency is read from the fitted curve at half-maximal effect; tags tell the direction and shape of the fitted curve.
SMILES,Potency,"activity, negative = inhibition"
Cc1cc(C(=O)Nc2nnc(C(F)(F)F)s2)cs1,inactive,–
C=CCc1cc(Cl)ccc1OCCOCCN(C)C,active: 7.94 µM,–
COc1ccc(CN(C(=O)c2snc(C(N)=O)c2N)C(C(=O)NC(C)(C)C)c2ccco2)cc1 (configuration not stated),"inconclusive: 0.794 µM [inhibitor, full curve]",–
NCC(O)COc1cccc2ccccc12 (configuration not stated),inactive,–
Cc1n(C)c2cc(Cl)ccc2[n+]1Cc1ccccc1,"inconclusive: 50.1 µM [inhibitor, partial curve, poor fit]",–
CCOC(=O)c1sc(N)c(C#N)c1COC(=O)C1=COCCO1,"inconclusive: 3.98 µM [inhibitor, single point]",–
COc1ccccc1CN(Cc1ccco1)c1cnc(S(C)(=O)=O)nc1C(=O)Nc1cc(C)ccc1C,"inconclusive: 10 µM [inhibitor, partial curve, poor fit]",–
O=C(CC1C(=O)NCCN1C(=O)Nc1ccc(F)cc1F)Nc1ccc(F)cc1 (configuration not stated),inactive,–
CC(C)(C)NCCOc1ccc(Br)cc1,active: 17.8 µM,–
Cc1c(C(=O)Nc2ccc(F)cc2)c2ccccn2c1CCc1ccncc1,"inconclusive: 15.8 µM [inhibitor, partial curve, poor fit]",–
CCN1CC=C2C(C#N)=C(N)C(C#N)(C#N)[C@H](c3cccc(OC)c3OC)[C@H]2C1,–,inconclusive: -58.4% [inhibitor]
COc1ccc(Cn2c(SCc3ccc(C(=O)NC4CCCC4)cc3)nc3cccnc32)cc1,inactive,–
O=C(CCS(=O)(=O)c1ccccc1)Nc1nc2ccc(F)cc2s1,inactive,–
Cc1ccc(/C=C2/C(=O)ON=C2c2ccccc2)o1,active: 12.6 µM,–
CC(C)C[C@H](NC(=O)N1CCN(c2ccccc2)CC1)C(=O)O,"inconclusive: 89.1 µM [inhibitor, partial curve, poor fit]",–
CC(=O)N1CCN(C(=O)CSc2nc3c(cnn3-c3ccccc3)c(=O)[nH]2)CC1,inactive,–
Cc1ccc(-n2c(=O)[nH]c3c(C(N)=O)nc(-c4ccc(C)o4)nc32)cc1,"inconclusive: 22.4 µM [inhibitor, single point]",–
COC(=O)C1CCCN1C(=O)C12CC3CC(CC(C3)C1)C2 (configuration not stated),inactive,–
COc1ccc(CN2CCNC(=O)C2CC(=O)NCCCn2cccn2)cc1C (configuration not stated),–,inactive: 11.1% [at 0.501 µM]
CC(C)(C)C(=O)c1sc(Nc2ccccc2)nc1N,active: 25.1 µM,–
Cc1cccc(C)c1OCc1cc(C(=O)N2CCC(c3ccncc3)CC2)no1,"inconclusive: 89.1 µM [inhibitor, single point]",–
C=CCOC(=O)C(C#N)c1nc2ccccc2nc1N1CCN(Cc2ccccc2)CC1 (configuration not stated),"inconclusive: 1.12 µM [inhibitor, partial curve, poor fit]",–
